# Source: PubChem BioAssay AID463173 (ICCB-Longwood Screening Facility, Harvard Medical School, 2010)
# In all, about 52,000 compounds went through this assay and about 4,300 (8.3%) were called active. Rule as the data show it: active = survival mostly below about 52% (no sharp cut-off); inactive = mostly above about 56%. The list shows a part of the results.
# Test system: DeltatarO mutant
# Test: S. aureus survival, RN4220 and DeltatarO strains – OD600, teichoic acid synthesis inhibitors, primary screen (AID 463173)
# Details: S. aureus RN4220 wild type/DeltatarO growth, OD600, 18 h, stronger effect = lower value, screened at 18.75 µg/mL (by protocol)
row,Structure (SMILES),survival
1,COc1ccc(OC)c(NC(=O)c2cc(-c3ccc(Cl)s3)nc3ccccc23)c1,inactive: 72%
2,CCC(=O)Nc1cc(-c2cccc(C)c2)nn1-c1ccccc1,inactive: 83%
3,Cc1cccc(-c2nc(SCC(=O)N3CCc4ccccc43)c3c(=O)n(C)c(=O)n(C)c3n2)c1,inactive: 88%
4,COc1ccc(N2CCN(Cc3nc4c(c(=O)[nH]c(=O)n4C)n3Cc3ccc(Cl)cc3)CC2)cc1,inactive: 102%
5,CC(=O)Nc1cc(C(C)C)c(O)c(C(C)C)c1,inactive: 95%
6,CCOC(=O)CNc1nc(Oc2ccc(=O)n(C)n2)nc(N(CC)CC)n1,inactive: 77%
7,Cc1nc2cc(C(=O)O)ccc2n1C,inactive: 67%
8,CCOc1ccc(-n2c(SCC(=O)N3CCc4ccccc43)nc3c([nH]c4ccccc43)c2=O)cc1,inactive: 69%
9,Cc1cccc(-c2nnc(SCc3cc(=O)c4cccc(Cl)c4[nH]3)n2C)c1,inactive: 90%
10,COc1cccc2c1ncc1c(-c3ccc(C)cc3)nn(-c3cccc([N+](=O)[O-])c3)c12,inactive: 87%
11,CCCN(Cc1cccs1)C(=O)Nc1ccc(OCC)cc1,inactive: 67%
12,COc1ccc(NC(=O)Cn2c(=O)c(-c3cc(C)ccc3NC(C)=O)nc3ccccc32)c(OC)c1,inactive: 94%
13,Cc1cc(C)cc(NC(=O)C(=O)NCC(c2ccc3c(c2)OCO3)N2CCN(C)CC2)c1 (centres undefined),inactive: 76%
14,COc1ccc(-n2ncc3c(NC(C)(C)CO)ncnc32)cc1,inactive: 75%
15,Cc1ccc(CSc2nnc(-c3ccncc3)n2CC2CCCO2)cc1 (centres undefined),inactive: 54%
16,CCOc1ccc(NC(=O)Cn2c3ncccc3c(=O)n2-c2ccc(CC)cc2)cc1,inactive: 85%
17,CCN(CC)S(=O)(=O)c1ccc(NC(=O)NCc2noc3ccc(C)cc23)cc1,inactive: 87%
18,Cc1nc2cccnc2n1C1CCN(S(C)(=O)=O)CC1,inactive: 80%
19,CC1(C)Cc2ccccc2-c2nc3n(c(=O)c21)CCCS3,inactive: 76%
20,Cc1cc(S(=O)(=O)C(CNC(=O)c2ccc(OC(C)C)cc2)c2cccs2)ccc1F (centres undefined),inactive: 80%

row,Structure (SMILES),survival
1,COc1ccccc1CNC(=O)CCc1c(C)nn(-c2ccc(N3CCOCC3)nn2)c1C,inactive: 80%
2,COc1ccc(NC(=O)CSc2nc3c([nH]c4ccccc43)c(=O)n2-c2ccccc2)c(OC)c1,inactive: 102%
3,O=C(NCc1ccco1)c1ccc2c(c1)N(Cc1ccccc1)C(=O)c1ccccc1S2(=O)=O,inactive: 68%
4,O=C(CSc1nc(O)cc(=O)[nH]1)c1ccc(O)cc1O,inactive: 75%
5,COCCNc1ncnc2c1c(-c1ccccc1)cn2-c1ccc(C)c(Cl)c1,inactive: 81%
6,O=C(NCc1ccc(F)cc1)c1ccc2c(c1)N(Cc1ccc(F)cc1Cl)C(=O)CS2,inactive: 57%
7,CCCSc1ncc(Cl)c(C(=O)Nc2ccc(OC)cc2OC)n1,active: 46%
8,COc1cccc(CNC(=O)CCn2ccc3cc(S(=O)(=O)N4CCCC4)ccc32)c1,inactive: 94%
9,Cc1ccc(CN2C(=O)SC(Nc3ccccc3)C2=O)cc1 (centres undefined),active: 40%
10,O=C(NCCn1cc(SCc2ccc(C(F)(F)F)cc2)c2ccccc21)c1ccccc1F,active: 36%
11,CC(C)CCSc1nc2c(c(=O)n(C)c(=O)n2C)n1Cc1ccccc1Cl,active: 34%
12,COc1ccc(NC(=O)CCc2nc3cccnc3n2Cc2cccs2)c(OC)c1,inactive: 71%
13,CCOC(=O)c1ccc(NC(=O)Nc2cccc(OCc3cc(=O)n4ccc(C)cc4n3)c2)cc1,inactive: 68%
14,CC(C)(C)n1nnnc1CN1CCC(NC(=O)Nc2ccc(F)cc2)CC1,inactive: 102%
15,CCN1CCN(CCC(=O)Nc2ccc(C)cc2)CC1,inactive: 100%
16,CCCCOc1ccc(NC(=O)CSc2ccc(C(=O)O)cn2)cc1,inactive: 63%
17,Cc1cc(N2CCN(c3ccccc3F)CC2)n2cnnc2n1,inactive: 76%
18,O=C(CSc1nnc(-c2ccccc2)c(-c2ccccc2)n1)Nc1ccccc1Cl,inactive: 75%
19,CCCOc1ccc(C(=O)Nc2cc3nn(-c4ccc(CC)cc4)nc3cc2C)cc1,inactive: 70%
20,COc1cc(NC(=O)CCN2CCOCC2)cc(OC)c1,inactive: 110%

row,Structure (SMILES),survival
1,COc1ccccc1OCCCn1c(-c2ccc(Cl)cc2)nc2ccccc2c1=O,active: 29%
2,CCC(C)Cn1c(COc2ccc(OC)cc2)nc2ccccc21 (centres undefined),active: -1%
3,COc1ccc(NC(=O)Nc2nnc(SCC(=O)Nc3cccc(C)c3C)s2)cc1,inactive: 89%
4,CCn1cnc2c(=O)oc3ccc(S(=O)(=O)N4CCN(c5cc(C)ccc5C)CC4)cc3c21,inactive: 98%
5,CN(C)S(=O)(=O)c1ccc(S(=O)(=O)N2CC=C(c3ccc(F)cc3)CC2)cc1,inactive: 80%
6,COc1ccc(C2=C(C)C(=O)N(Cc3ccc(C(=O)NCc4ccccc4C)cc3)S2(=O)=O)cc1,inactive: 84%
7,COc1ccc(CCn2nnnc2CN2CCN(Cc3ccccc3)CC2)cc1OC,inactive: 82%
8,CCOc1ccc(NC(=O)CCn2c(-c3ccc(F)cc3)cc(C(C)=O)c2C)cc1,inactive: 80%
9,Cc1cccc(OCC(=O)OCc2cc(=O)n3nc(C4CC4)sc3n2)c1,inactive: 87%
10,CCN1C(=O)/C(=c2/s/c(=C3\SC(C)=C(C)N3CC)c(=O)n2CC)N(C)C1=S,inactive: 89%
11,CCOC(=O)Cc1c(C)nc2c(-c3ccc(OC)c(OC)c3)c(C)nn2c1C,inactive: 82%
12,CCC(O)(CCN1CCCCC1)c1ccccc1 (centres undefined),inactive: 80%
13,COc1ccc(-c2cc(C(=O)Nc3ccc(C#N)cc3)no2)cc1,inactive: 46%
14,Cc1cccc(C(=O)Nc2nnc(S(=O)(=O)N3CCC(C)CC3)s2)c1,active: 35%
15,CCOC(=O)CC(NC(=O)c1cc2cc(OC)ccc2oc1=O)c1ccc(OC)cc1 (centres undefined),inactive: 74%
16,O=C(CCC(=O)N1CC2CCCN2c2ccccc21)NCc1ccccc1F (centres undefined),inactive: 131%
17,CC1Cc2ccccc2N1C(=O)CSc1nc(N)cc(N)n1 (centres undefined),inactive: 71%
18,COc1ccc(/C=C/c2nc(-c3ccccc3O)n(-c3ccccc3)n2)cc1OC,active: 13%
19,Cc1cc(C)cc(OC(=O)c2cc(-c3ccc4c(c3)OCCO4)on2)c1,active: -2%
